Laboratory results published in patent publication US20220349893A1, “METHODS FOR THE TREATMENT OF ARID1A-DEFICIENT CANCERS” (The Wistar Institute of Anatomy and Biology, priority 2019, published 2022).

Columns and labels:
ARID1A mutated OCCC PDX = assay: ARID1A-mutated PDX OCCC xenograft model; format: in vivo, mouse
From the text: (§1) FIG. 14. A GLS inhibitor selectively decreases ARID1A-deficient PDX. ARID1A wild-type and mutated PDX OCCC xenograft models were used to evaluated the antitumor effect of glutaminase inhibitor.

[1] = test system: ARID1A wild-type OCCC PDX; assay: ARID1A wild-type PDX OCCC xenograft model; format: in vivo, mouse
From the text: as §1

HCCC1806 cells = conditions: 1 μM; 72 hours; cited from earlier work
MDA-MB-231 cells [2] = conditions: 0.1-1000 nM; 72 hours; read-out: IC50, antiproliferative activity; cited from earlier work
HCC1806 cells = conditions: 0.1-1000 nM; 72 hours; read-out: IC50, antiproliferative activity; cited from earlier work
RMG1 cells = assay: CB-839 IC50 in ARID1A wild-type control and knockout RMG1 cells; format: cell-based
From the text: FIG. 3. ARID1A-deficient cells are sensitive to glutaminase inhibition. The inventors also tested CB-839, a specific glutaminase inhibition, in ARID1A wild-type control and knockout RMG1 cells. The inventors chose CB-839 for our experiments because it is the only GLS inhibitor that is now in clinical trials for other diseases and is proven safe in clinical trials including in combination studies.

[3] = test system: ARID1A wild-type control RMG1 cells; assay: Tumors formed by ARID1A wild-type control RMG1 cells; format: in vivo, mouse
From the text: (§2) FIG. 11. A GLS inhibitor selectively decreases ARID1A-deficient tumors in vivo.

[4] = test system: ARID1A-mutated or knockout cells; assay: Sensitivity to CB-839 with aspartate supplementation or SLC1A3 expression; format: cell-based
From the text: FIG. 5. Supplementation of aspartate abolishes sensitivity to CB-839.

[5] = test system: ARID1A mutated TOV21G OCCC cells; assay: Orthotopic xenograft model formed by ARID1A mutated TOV21G OCCC cells; format: in vivo, mouse; conditions: 200 mg/kg orally twice daily for three weeks
From the text: FIG. 10. A GLS inhibitor selectively decreases ARID1A-deficient tumors in vivo. The inventors sought to determine the therapeutic potential of GLS inhibitor CB-839 for ARID1A-mutated tumors. Toward this goal, they used three different mouse models. First, they used orthotopic xenograft models formed by ARID1A mutated TOV21G OCCC cells. Briefly, the orthotopically transplanted cells were allowed to grow for one week to establish the orthotopic tumors. Mice were then randomized and treated twice daily for three weeks with vehicle control or CB-839 (200 mg/kg) orally, feeding with normal and aspartic acid free food. The used tumor weight as a surrogate for tumor burden.

[6] = test system: Arid1a-/-/Pik3caH1047R ovarian clear cell carcinoma; assay: Conditional genetic Arid1a/Pik3caH1047R OCCC mouse model; conditions: CB-839 200 mg/kg twice daily orally, pre-established genetic OCCC model
[7] = test system: glutamine utilization by the tumors; assay: Glutamine levels in treated tumors; conditions: in vivo
From the text: FIG. 16. GLSi increases the Gln levels in tumors.

MDA-MB-231 cells [8] = conditions: 1 μM; 72 hours; cited from earlier work
[9] = test system: ARID1A knockout RMG1 cells; assay: Orthotopic xenografts formed by ARID1A knockout RMG1 cells; format: in vivo, mouse
From the text: as §2

glutaminase in brain = conditions: cited from earlier work
glutaminase in kidney = conditions: cited from earlier work
[10] = water; cited from earlier work
[11] = test system: experimental glioblastoma; conditions: combined with calorie-restricted ketogenic diet; cited from earlier work

For `O=C(Cc1cccc(OC(F)(F)F)c1)Nc1ccc(CCCCc2nnc(NC(=O)Cc3ccccn3)s2)nn1` [CB-839, Telaglenastat], the tumor burden (ARID1A mutated OCCC PDX) is given as “significantly reduced the tumor burden”, the tumor burden [1] is given as “but not ARID1A wild-type” and the “caspase 3/7 activation and apoptosis” value (HCCC1806 cells) is given as “activates caspase 3/7 and induces apoptosis”. For the same compound, the IC50 (MDA-MB-231 cells [2]) was 26 nM, the IC50 (HCC1806 cells) was 49 nM and the “decrease of the IC50 of CB-839 by ARID1A knockout compared with ARID1A wild-type control cells” value (RMG1 cells; RMG1 cells, ARID1A knockout vs wild-type control) was “more than 300 fold”. For the same compound, the “rescue of the decrease in CB-839 IC50” value (RMG1 cells; ectopic expression of wild-type ARID1A in ARID1A knockout RMG1 cells) was “can be rescued by ectopic expression of wild-type ARID1A”, the growth of tumors [3] was “did not significantly affect the growth of tumors” and the “sensitivity to CB-839 on ectopic expression of aspartate transporter SLC1A3” value ([4]; RMG1 knockout cells without endogenous SLC1A3) was “reduced the sensitivity to CB-839”. For the same compound, the “sensitivity to CB-839 on addition of aspartate” value ([4]; aspartate added to culture medium of ARID1A-mutated or knockout cells) was “reduced the sensitivity to CB-839”, the “burden of orthotopic xenografts (tumor weight)” value [5] was “significantly reduced the burden of orthotopic xenografts” and the “survival of tumor bearing mice” value [5] was “significant improvement of survival”. The “effect on tumor burden with aspartic acid free food” value ([5]; aspartic acid free food) was “The effect was enhanced”, the “tumor burden (tumor weight)” value [6] was “significantly reduced the burden” and the “glutamine levels in the treated tumors” value [7] was “significantly increased glutamine levels”. For the same compound, the “caspase 3/7 activation and apoptosis” value (MDA-MB-231 cells [8]) was “activates caspase 3/7 and induces apoptosis”, the “burden of orthotopic xenografts” value [9] was “significantly reduced the burden of orthotopic xenografts” and the IC50 (glutaminase in brain) was 23 nM. The IC50 (glutaminase in kidney) was 28 nM.

For `[N-]=[N+]=CC(=O)CC[C@H](N)C(=O)O` [DON, 6-Diazo-5-oxo-L-norleucine], the solubility [10] is listed as “water-soluble” and the “tumor cell kill, disease symptoms and overall survival” value [11] is listed as “kill tumor cells while reversing disease symptoms and improve overall survival”.
